# The source gives no read counts; variants with many changes may rest on few reads.
# B1: LINE1-mini (parent)
# chain: GGCAGAGCUCAACACAGCGUGGCAAAGUGGCUGUGGCUAGACUGCC
# Variants of: B1
# Test: self-cleavage, relative activity (ratio to wild type); higher = more cleavage; in vitro, sequencing; the parent is a self-cleaving ribozyme
row,Variant,self-cleavage
1,C13A U32G C45A,0.01
2,G2U A24U G33C,0.01
3,G21C U28A A41C U43G,0.01
4,G1U G2A G5U C10A,0.03
5,U9C A12C G33U U34G,0.01
6,G1U U9A A16G G30U C46A,0.02
7,U9A U34A A39C,0.11
8,C31U U32G U43A C46U,0.07
9,A14G C15G G19A,0.04
10,A4G G7C C8U A25G G40A C46A,0.14
11,C10U A16G U20A G21C A26G G30A G36C U38G,0
12,G2C C10U A24C,0.01
13,G7U C10U C13A G17C,0.03
14,G2U U9G G29U,0.04
15,G22C C23A A26U,0.38
16,C3A A6G C15A A41G,0.04
17,G2C U34G A41U C45A,0.03
18,A26C U32A U43C G44C,0
19,G5C C10U A24U A25U,0.02
20,A12G C31U G35A,0.01
21,G2U A11C U20A A24U A25U G27U,0.01
22,G2U A26G C46A,0.19
23,C15U G29A C46U,1.23
24,C3A A12U G29C,0.03

row,Variant,self-cleavage
1,C13G A25G C31A G40A,0.12
2,C8A A14C A25U C46A,0.07
3,C3U C13U U28C G36U,0.27
4,A4C A11G C42U,0.08
5,G7A C18A U32G U38G,0.02
6,G2C A6C G27C A41G,0.03
7,U20C G22A A24U G27A C31A U38C,0.32
8,C10G C18A A41U,0.01
9,C3U C13U U28A C31G,0.05
10,U9A C10U G22A,0.07
11,C13A C18U G30C G35C G36U,0.01
12,C8G C10G C23U A25C G40U,0.01
13,G1A A25U U28A,0.17
14,C18A G21U U34A,0.04
15,U9G C10A U20G G30A C31A G40C,0.01
16,G2U A4U A16C A39C,0.05
17,G5C A12C C18A G30C C31G,0.03
18,U20G C31G C37U,0.02
19,A24G C42G C46G,0.01
20,G5C U34G U38A G40U,0.05
21,G17A G40U C42A C45U,0.1
22,G1C C3U C31G,0.03
23,C8G C13G A14G,0.02
24,A6G C8G C18U C31U C42U,0.03

row,Variant,self-cleavage
1,C13U C31G U38C,0.02
2,C18A G21U C23G G27U C37A,0.14
3,G5U G17A A25C G40C A41U,0.03
4,G30C G33A G36C,0.05
5,G2U A14C G22U G29C,0.01
6,U20G G21A U34A,0.14
7,C3U C13U G17U C18G A39C G40C,0.05
8,C10G A25C C46A,0.05
9,G1U A11U C15U C45A,0.03
10,A12U G22A U28A,0.26
11,C15G A16G C23U U32C C45A,0.03
12,C3U G17A C37U,0.06
13,G30C C42G C46A,0.13
14,A12G C31A G44A,0.01
15,C8G G21A G33U G44A C46U,0.05
16,C3G A4C G17U,0.19
17,C3U C13A G19U,0.06
18,U9A C10U A16C G35U,0.02
19,G40U C42U U43A,0.06
20,A16C G21U G36A,0.39
21,C8G A14G G36C U38G,0.04
22,G7U C15G G19U C45A,0.25
23,C3A A12U A14G A25U A26G G30U,0.15
24,G2U C15G A16G C31U A41U,0

row,Variant,self-cleavage
1,A11C G22A A39U G40A,0.02
2,A16C G17A U32G A39U,0.05
3,G2C A12G C42A,0.2
4,G19C G33A U38A,0.22
5,U20A G33U G40U,0.1
6,G5A U20C G27A U34C G36U,0.03
7,U34A A39U C46U,0.03
8,G1U A14U G30U G33C A41U,0.02
9,C8G G27A G29C,0.07
10,A4U G7A G19A,0.47
11,A11C A14G G29A C37U,0.02
12,G35C U38C A39G,0.06
13,G22U C23U U43C,0.17
14,C10A C23U G36U C46U,0.01
15,G22U U32A G36A,0.02
16,C8A C15U A25G,0.12
17,C3U G27U G35C G36U,0.09
18,G2U G27C G36U C42A,0.02
19,G1A G30A A41G,0.1
20,C13U U34G A41C,0.03
21,A11U G30C G44A,0.03
22,G1A G7C A14U C37A C42A U43G,0.4
23,G1U G5U A6C,0.07
24,A24G C42G C46U,0.01

row,Variant,self-cleavage
1,A4G C8U C15G,0.3
2,A6U C10A G17A G22A G30U G40U,0
3,A6G U9C A39U,0.05
4,C3U G29A U32C,0.08
5,C8A A11G C13A G27A,0.04
6,G2U A4G G29C G30C U32A A39G C46U,0.03
7,A6G C8G C10A C18U A41U,0.01
8,G5C U38G C45U,0.09
9,G22A A25C G27U,0.12
10,A16G A25U G29U G35U,0.02
11,A25U G35C A39U,0
12,G1C G21U G30C,0.66
13,A16C G21A U38C,0.14
14,A6G C13A C23G,0.06
15,G22C A26U C42U,0.03
16,C3A C13U C15A G19C G35C G40C G44A,0.16
17,G7A A24U G29C,0.06
18,U32G C42A U43G,0.03
19,A4G G22A C42A,0.07
20,C3G C10A G33C G35U,0.01
21,C10U A12G G44U,0
22,A4U A25C G30C,0.09
23,A12U C18U G21A A26U C31A,0.06
24,G2C C23A U32A G33A,0.01

row,Variant,self-cleavage
1,G7U A12G C18A G29U G40U,0.02
2,G1A U9G C10U G29U,0.18
3,C3U G19A G22C C23U,0.12
4,G5C G7U C18G U38G,0.01
5,G1U G29U G30C C37G G40C,0.06
6,G19A G29U C46A,0.59
7,G2C C3G G21U G40A,0.07
8,G19A U20G G29U,0.5
9,A4U G21A G36A C42U,0.02
10,C3A C8A U32G,0.15
11,G1U C10G G17U G29U U32A,0.02
12,C42G C45A C46A,0.01
13,G2A U28A G35A,0.56
14,G7C U20C G21U A39C G40U,0.05
15,A12G C23U A26U G33U A39U,0.02
16,A4G A6G A12C U20G G22U G40C,0.01
17,C18A G36C C37G A41C,0.01
18,C8U G27U A39G,0.01
19,A4G G5U C8U A14U C23A,0.06
20,U32G A39U G40C,0.02
21,G17U G19C G27U,0.52
22,A12C A26U A41U,0.01
23,G5C A26U U43G,0.07
24,G5U G21C U34A G40A,0.04

row,Variant,self-cleavage
1,C3U G27C G30U,0.96
2,C10G C23G G27A,0.2
3,A4G A6U C13A G44A,0.33
4,U9G C15A G22A,0.1
5,C8U G29C A39G G40U,0
6,G19U G30A A41U,0.28
7,A6G U38C C45G,0.06
8,A6G C13A G36A A39C,0.05
9,G5U A16G C45A,0.01
10,C3A A4G C45U,1.18
11,C8A C10A G40U,0.18
12,A4G G36U C37U,0.01
13,G7C G19A U20C U32A,0.01
14,C8G U20C G30U U32A U34A A41G,0.05
15,A11G C15G A25U,0.02
16,A4G U9G U34A,0.06
17,A4G A12G G19C G27U G29A G30U,0.03
18,A4C C23A G29A,0.18
19,G2C U32G U38C,0.06
20,G5C G19C G40C A41C,0.02
21,C8A G30C C45A,0.26
22,A24C G27C G29U G30U C42U,0.09
23,A4G C15G A25G C46G,0.02

# — the RNAGym collection of RNA variant scans (doi:10.7554/elife.90254)
